Screen size: about 410,000 compounds; about 6,400 (1.6%) were called active. Inconclusive results, whose numbers are uncertain, are shown with a selection of clear calls. Calls follow the shape of the dose curve; as a rule, active = well fitted inhibition curve with a large enough effect; inconclusive = small, poorly fitted or top-dose-only effect; inactive = no such curve, though single readings can be large or run the other way. Where the call is inconclusive, the potency comes from a doubtful curve fit.
Biological target: Glucagon-like peptide 1 receptor (Homo sapiens) (UniProt P43220)
Sequence of UniProt P43220 (P43220 whole entry, looked up): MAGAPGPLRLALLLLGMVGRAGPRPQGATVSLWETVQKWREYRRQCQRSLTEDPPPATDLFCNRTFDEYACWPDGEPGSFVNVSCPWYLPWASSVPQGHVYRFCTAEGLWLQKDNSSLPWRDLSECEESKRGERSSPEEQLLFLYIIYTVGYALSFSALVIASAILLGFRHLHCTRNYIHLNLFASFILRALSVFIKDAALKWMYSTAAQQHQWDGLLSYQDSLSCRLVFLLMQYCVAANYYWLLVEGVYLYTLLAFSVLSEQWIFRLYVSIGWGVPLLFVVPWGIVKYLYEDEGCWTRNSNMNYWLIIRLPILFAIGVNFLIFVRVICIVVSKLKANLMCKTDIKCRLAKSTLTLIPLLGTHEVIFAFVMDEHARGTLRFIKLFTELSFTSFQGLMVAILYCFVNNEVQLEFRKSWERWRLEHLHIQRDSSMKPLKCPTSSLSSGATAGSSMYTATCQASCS
Experiment: qHTS of GLP-1 Receptor Inverse Agonists (Inhibition Mode); also: nearly all actives have a fitted effect of over 55% in size
Settings: HEK293 GLP-1R CRE-luciferase, luminescence, 24 h, GLP-1R form is constitutively active; series mostly up to 38.3 µM
Outline: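 Using stably transfected HEK293 (constitutively active GLP-1R, cAMP-luciferase reporter), compounds were incubated 24 hr and luciferase measured by luminescence.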
Potency is read from the fitted curve at half-maximal effect; tags tell the direction and shape of the fitted curve.

Potency, inactive:
CC(=O)Nc1ccc(NC(=O)C2(C)Cc3c(-c4ccccc4)ccnc3O2)cc1 (stereo not given)
Cc1cccc2sc(N(CCCN(C)C)C(=O)CN3C(=O)c4ccccc4C3=O)nc12
Cc1ccc2c(c1)-c1[nH]c(=S)ncc1CS2
Cc1c(Cl)cccc1NC(=O)CCN1CCN(C)CC1
C[C@@H]1CN([C@H](C)CO)C(=O)CCCn2nncc2CO[C@H]1CN(C)S(=O)(=O)c1ccc(Oc2ccccc2)nc1
CN(C1CCCCC1)S(=O)(=O)c1ccc(S(=O)(=O)N2CCCC2)cc1
COc1ccc(/C=N\NC(=O)c2ccccc2Br)cc1COc1ccc(F)cc1
Cc1ccc2nc(Cl)cc(=O)n2c1
CCNc1ccc(Br)cc(C(=O)/C=C/c2ccc3c(c2)OCO3)c1=O
COc1cc(/C=N/Nc2nc(=O)[nH]nc2C)cc(OC)c1O
C/C(=N\O)c1c(O)cc(-c2ccccc2)n(-c2ccccc2)c1=O
COCCN1CN(S(=O)(=O)c2ccccc2)c2nc3ccccc3nc21
CCOC(=O)C1CCN(Cc2c(O)ccc3ccccc23)CC1
NC(=O)C1CC(=O)N(c2ccc(OCc3ccc(Cl)cc3Cl)cc2)C1 (stereo not given)
Cc1ccc(CNC(=O)c2sc3nc4n(c(=O)c3c2C)CCCC4)cc1

Potency, inconclusive:
Cc1ccc(Nc2nc(=O)c3cccnc3s2)c(Br)c1 7.08 µM [inhibitor, partial curve]
CC(C)c1ccccc1NC(=S)NCC1(N(C)C)CCCCC1 10 µM [inhibitor, partial curve, poor fit]
O=[N+]([O-])c1ccc(COc2ccc(-c3[nH]ncc3-c3ccc(Cl)cc3)c(O)c2)cc1 2.82 µM [inhibitor, full curve]
CC(C)(C)c1ccc(CN(Cc2ccco2)c2cnc(S(C)(=O)=O)nc2C(=O)Nc2ccc(F)cc2)cc1 1.41 µM [inhibitor, full curve, poor fit]
O=C(CC(=O)Nc1nc(C23CC4CC(CC(C4)C2)C3)cs1)NCCO 2.24 µM [inhibitor, full curve, poor fit]
Cc1cccc2cc(CN(CCN3CCCC3)C(=O)NC3CCCCC3)c(=O)[nH]c12 28.2 µM [inhibitor, single point]
Cc1cc(NC(=O)C2CCN(C(=O)c3ccco3)CC2)ccc1Br 10 µM [inhibitor, partial curve, poor fit]
COc1cc(NC(=O)N2CCC3(CC2)Nc2cc(F)ccc2-n2cccc23)cc(OC)c1OC 14.1 µM [inhibitor, partial curve, poor fit]
Cc1ccc(OCCCCNC(C)c2ccccc2)c(C)c1 (stereo not given) 8.91 µM [inhibitor, partial curve, poor fit]
CCOc1ccccc1C(=S)NC1CCCCC1 10 µM [inhibitor, single point]
CCOc1ccccc1NC(=S)Nc1ccc(S(N)(=O)=O)cc1 5.62 µM [inhibitor, partial curve, poor fit]
O=C(O)C/C=C(\NC(=O)OCc1ccccc1)C(=O)OCc1ccccc1 28.2 µM [inhibitor, single point]
O=C(N/N=C/c1sc2ccccc2c1O)c1cccc2ccccc12 4.47 µM [inhibitor, full curve]
CCC1CCc2sc(C(=O)NCC(c3ccc(OC)cc3)N3CCCC3)cc2C1 (stereo not given) 12.6 µM [inhibitor, partial curve, poor fit]
COc1cc(C2C(C(=O)c3ccc(C)o3)=C(O)C(=O)N2Cc2ccccc2)ccc1O (stereo not given) 28.2 µM [inhibitor, single point]
CCN(CC)CCCNC(=O)CSc1nc(-c2cccs2)cc(C(F)(F)F)n1 31.6 µM [inhibitor, single point]
Cc1cccnc1NC(=S)NC(=O)c1cncc(Br)c1 28.2 µM [inhibitor, single point]
COc1ccccc1CNc1nc(-c2ccccc2CO)c2sccc2n1 11.2 µM [inhibitor, single point]
O=C(CCNS(=O)(=O)c1cccc2nsnc12)NCc1ccccc1 8.91 µM [inhibitor, single point]
Cc1cc(C(=O)COC(=O)C2=NN(c3ccccc3)C(=O)CC2)c(C)n1CC(F)(F)F 1.26 µM [inhibitor, full curve, poor fit]
FC(F)(F)c1cc(CCN2CCNC[C@@H]2Cc2ccccc2)cc(C(F)(F)F)c1 11.2 µM [inhibitor, partial curve, poor fit]
COc1cc(C2c3c(-c4ccc(C)cc4)n[nH]c3C(=O)N2c2ccc(F)cc2)ccc1O (stereo not given) 28.2 µM [inhibitor, single point]
Cc1cc(C(=O)N/N=C/c2cccs2)no1 28.2 µM [inhibitor, single point]
CCc1cccc(NC(=O)c2ccc3c(=O)n4c(nc3c2)CCCCC4)c1 28.2 µM [inhibitor, single point]
CCOC(=O)[C@]12CCCC=C1N(Cc1ccccc1)C(=O)[C@H](CC(=O)NCCCCc1ccccc1)C2 11.2 µM [inhibitor, partial curve, poor fit]
Cc1c(Cl)cccc1-n1ncc(C(=O)NCc2cccs2)c1C1CCN(C(=O)OC(C)(C)C)CC1 10 µM [inhibitor, single point]
CC(C)(C)c1ccc(C(=O)Nc2ccc(C(=O)N3CCOCC3)cc2)cc1 14.1 µM [inhibitor, partial curve, poor fit]
Cc1ccc(C)c(CSCC(=O)NCc2cccs2)c1 28.2 µM [inhibitor, single point]
CCN(CC)S(=O)(=O)c1ccc2c(c1)nc(SC(C)C(N)=O)n2-c1ccc(OC)cc1 (stereo not given) 1.58 µM [inhibitor, full curve, poor fit]
Cc1ccc(S(=O)(=O)Nc2ccc(-c3csc(-c4ccccc4)n3)cc2)cc1 14.1 µM [inhibitor, single point]
CNCCCCOc1ccc(C(C)(C)C)cc1Cl 8.91 µM [inhibitor, partial curve, poor fit]
COCC(C)n1c(SCc2ccc(C(=O)OC)cc2)nc2ccccc2c1=O (stereo not given) 28.2 µM [inhibitor, single point]
O=C1c2ccccc2NC(c2cccc(O)c2)N1Cc1ccco1 (stereo not given) 6.31 µM [inhibitor, partial curve, poor fit]
COc1ccc(CN(C)C(=O)c2oc3ccccc3c2CSC)cc1F 11.2 µM [inhibitor, partial curve, poor fit]
COc1ccc(CNc2oc(Cc3cccc4ccccc34)nc2C#N)cc1 12.6 µM [inhibitor, partial curve, poor fit]
O=C(Nc1ccc(Br)cc1)c1ccccc1CC[N+](=O)[O-] 12.6 µM [inhibitor, single point]
O=C(N/N=C/c1ccc[nH]1)c1cc(-c2ccc(Cl)cc2)nc2ccccc12 12.6 µM [inhibitor, partial curve, poor fit]
COc1ccccc1NC(=O)N1CCC(CN2CCc3ccccc3C2)CC1 10 µM [inhibitor, partial curve, poor fit]
COc1ccc(-n2c(Cc3cccn3C)nnc2SCC(=O)Nc2cccc(Cl)c2)cc1 28.2 µM [inhibitor, single point]
COc1ccc(NC2SC(=O)N(C)C2=O)cc1 (stereo not given) 28.2 µM [inhibitor, single point]
O=C(CSc1c[nH]c2ccccc12)N1CCCc2ccccc21 28.2 µM [inhibitor, single point]
CCc1ccc(NC(=S)Nc2cccc(OC)c2)cc1 28.2 µM [inhibitor, single point]
CCN(C(=O)COC(=O)c1cc(-c2cccs2)nc2ccccc12)C1CCS(=O)(=O)C1 (stereo not given) 11.2 µM [inhibitor, partial curve, poor fit]
COc1ccc2[nH]c(=O)c(CN(C(=O)c3ccco3)C3CCCCC3)cc2c1 28.2 µM [inhibitor, single point]
CNc1nc(-c2ccc3c(c2)CCN3C(=O)CC(C)(C)C)c(C)s1 28.2 µM [inhibitor, single point]
O=C(NCc1ccc(OC(F)(F)F)cc1)C1CC(c2ccccc2C(F)(F)F)=NO1 (stereo not given) 28.2 µM [inhibitor, single point]
Cc1nc(Oc2ccccc2C)c2oc3ccccc3c2n1 28.2 µM [inhibitor, single point]
CSc1cc(N2CCOCC2)nc(-c2ccccc2Cl)n1 28.2 µM [inhibitor, single point]
CC1(C)CC(Nc2ccc(C(F)(F)F)cc2[N+](=O)[O-])CC(C)(C)N1 14.1 µM [inhibitor, partial curve, poor fit]
O=c1c2c3c(sc2n2cnnc2n1Cc1ccccc1)CN(Cc1ccccc1)CC3 11.2 µM [inhibitor, partial curve]

From PubChem BioAssay AID624417 (National Center for Advancing Translational Sciences (NCATS), 2012)
